From the supplement of paper PMC12350171
Synthetic gut communities (20 or 21 species) grown anaerobically with drug for 24 h at the dose given, then challenged with the named pathogen. Pathogen growth (luminescence, or colony counts for V. cholerae) or community OD578 as fold of untreated communities, mean of three; above 1 = more growth. No active / inactive call.

Columns and labels:
[1] = system: Salmonella enterica Typhimurium (community: Com21 (Com20 + E. coli ED1a)); experiment: pathogen growth (luminescence or CFU) in drug-pretreated community relative to untreated community (fold of untreated control); higher = more pathogen expansion
[2] = system: Salmonella enterica Typhimurium in Com20; experiment: S. Typhimurium luminescence in drug-pretreated Com20 relative to untreated Com20 (fold of untreated control); higher = more pathogen expansion
[3] = system: Com20 synthetic gut community; experiment: Com20 community biomass OD578 after 24 h drug treatment relative to untreated (fraction of untreated control); higher = more community growth
[4] = system: Yersinia enterocolitica WA-314 (community: Com20); experiment: pathogen growth (luminescence or CFU) in drug-pretreated community relative to untreated community (fold of untreated control); higher = more pathogen expansion
[5] = system: Yersinia pseudotuberculosis YPIII (community: Com20); experiment: as above
[6] = system: Vibrio cholerae A1552 (community: Com20); experiment: as above
[7] = system: Escherichia coli CFT073 (community: Com20); experiment: as above
[8] = system: Shigella flexneri 24570 (community: Com20); experiment: as above
[9] = system: Klebsiella pneumoniae MKP103 (community: Com20); experiment: as above
[10] = drug pretreatment concentration 10 µM
[11] = drug pretreatment concentration 20 µM
[12] = drug pretreatment concentration 40 µM
[13] = drug pretreatment concentration 80 µM
[14] = drug pretreatment concentration 160 µM
[15] = drug pretreatment concentration 2.5 µM
[16] = drug pretreatment concentration 5 µM
[17] = drug pretreatment concentration 100 µM

With `C[C@]1(Cn2ccnn2)[C@H](C(=O)O)N2C(=O)C[C@H]2S1(=O)=O` [Tazobactam] as the compound, how does the pathogen growth [1, 10] read?
Its pathogen growth is 2.41.

What about the pathogen growth [1, 11] of the same compound?
Its pathogen growth is 3.04.

What about the pathogen growth [1, 12] of the same compound?
The pathogen growth was 3.82.

And the pathogen growth [1, 13]?
The pathogen growth was 5.3.

And the pathogen growth [1, 14]?
Its pathogen growth is 38.4.

And the “S. Typhimurium luminescence” value [2, 10]?
Its value is 1.81.

What about the “S. Typhimurium luminescence” value [2, 11] of the same compound?
The value was 2.19.

And the “S. Typhimurium luminescence” value [2, 12]?
The value was 3.3.

And the “S. Typhimurium luminescence” value [2, 13]?
Its value is 3.09.

What about the “S. Typhimurium luminescence” value [2, 14] of the same compound?
The value was 4.72.

What about the “Com20 community biomass OD578” value [3, 10] of the same compound?
Its value is 0.843.

And the “Com20 community biomass OD578” value [3, 11]?
Its value is 0.728.

And the “Com20 community biomass OD578” value [3, 12]?
Its value is 0.586.

What about the “Com20 community biomass OD578” value [3, 13] of the same compound?
The value was 0.855.

What about the “Com20 community biomass OD578” value [3, 14] of the same compound?
Its value is 0.649.

Which pathogen growth [1, 10] does the source give for `CCCc1nc2c(C)cc(-c3nc4ccccc4n3C)cc2n1Cc1ccc(-c2ccccc2C(=O)O)cc1` [Telmisartan] here?
The pathogen growth was 0.745.

And the pathogen growth [1, 11]?
The pathogen growth was 0.65.

And the pathogen growth [1, 12]?
Its pathogen growth is 0.514.

What about the pathogen growth [1, 13] of the same compound?
Its pathogen growth is 0.913.

What about the pathogen growth [1, 14] of the same compound?
Its pathogen growth is 2.23.

And the “S. Typhimurium luminescence” value [2, 10]?
Its value is 1.01.

And the “S. Typhimurium luminescence” value [2, 11]?
The value was 0.597.

And the “S. Typhimurium luminescence” value [2, 12]?
The value was 0.468.

And the “S. Typhimurium luminescence” value [2, 13]?
The value was 0.54.

And the “S. Typhimurium luminescence” value [2, 14]?
Its value is 0.653.

What about the “Com20 community biomass OD578” value [3, 10] of the same compound?
The value was 0.979.

And the “Com20 community biomass OD578” value [3, 11]?
Its value is 0.977.

What about the “Com20 community biomass OD578” value [3, 12] of the same compound?
Its value is 0.921.

And the “Com20 community biomass OD578” value [3, 13]?
Its value is 0.927.

What about the “Com20 community biomass OD578” value [3, 14] of the same compound?
Its value is 0.957.

What does the source list for `Nc1nc(=S)c2ncn([C@@H]3O[C@H](CO)[C@@H](O)[C@H]3O)c2[nH]1` [Thioguanosine]?
pathogen growth [1, 15]: 1.07; pathogen growth [1, 16]: 1.09; pathogen growth [1, 10]: 1.04; pathogen growth [1, 11]: 1.06; pathogen growth [1, 12]: 1.25; S. Typhimurium luminescence [2, 15]: 1.3; S. Typhimurium luminescence [2, 16]: 0.93; S. Typhimurium luminescence [2, 10]: 0.923; S. Typhimurium luminescence [2, 11]: 0.751; S. Typhimurium luminescence [2, 12]: 0.701; Com20 community biomass OD578 [3, 15]: 1.01; Com20 community biomass OD578 [3, 16]: 0.993; Com20 community biomass OD578 [3, 10]: 1.03; Com20 community biomass OD578 [3, 11]: 1.05; Com20 community biomass OD578 [3, 12]: 1.02

Which results are given for `O=C(O)Cc1cc(I)c(Oc2ccc(O)c(I)c2)c(I)c1` [Tiratricol]?
pathogen growth [4, 10]: 1.11; pathogen growth [4, 11]: 1.08; pathogen growth [4, 12]: 1.16; pathogen growth [4, 13]: 1.08; pathogen growth [4, 17]: 2.69; pathogen growth [5, 10]: 0.691; pathogen growth [5, 11]: 0.933; pathogen growth [5, 12]: 1.06; pathogen growth [5, 13]: 0.465; pathogen growth [5, 17]: 0.987; pathogen growth [6, 10]: 0.829; pathogen growth [6, 11]: 0.916; pathogen growth [6, 12]: 1.28; pathogen growth [6, 13]: 2.03; pathogen growth [6, 17]: 3.43; pathogen growth [7, 10]: 1.31; pathogen growth [7, 11]: 1.31; pathogen growth [7, 12]: 1.56; pathogen growth [7, 13]: 3.96; pathogen growth [7, 17]: 14.9; pathogen growth [8, 10]: 1.01; pathogen growth [8, 11]: 1.12; pathogen growth [8, 12]: 1.65; pathogen growth [8, 13]: 4.05; pathogen growth [8, 17]: 9.47; pathogen growth [9, 10]: 1.12; pathogen growth [9, 11]: 1.84; pathogen growth [9, 12]: 1.74; pathogen growth [9, 13]: 2.25; pathogen growth [9, 17]: 11.3
